From patent publication US12583836B2 (Anaxis Pharma Pty Ltd, priority 2020, dated 2026)

Key:
RIP1 = biological target: T1, RIP1 (Homo sapiens, UniProt Q13546); assay: KINOMEscan binding assay, RIP1; conditions: equilibrium dissociation constant, class symbols
T1 construct: purchased DiscoverX (KINOMEscan service); host or cells: E. coli BL21-derived (T7 phage) or HEK293
T1 sequence (Q13546 1-671): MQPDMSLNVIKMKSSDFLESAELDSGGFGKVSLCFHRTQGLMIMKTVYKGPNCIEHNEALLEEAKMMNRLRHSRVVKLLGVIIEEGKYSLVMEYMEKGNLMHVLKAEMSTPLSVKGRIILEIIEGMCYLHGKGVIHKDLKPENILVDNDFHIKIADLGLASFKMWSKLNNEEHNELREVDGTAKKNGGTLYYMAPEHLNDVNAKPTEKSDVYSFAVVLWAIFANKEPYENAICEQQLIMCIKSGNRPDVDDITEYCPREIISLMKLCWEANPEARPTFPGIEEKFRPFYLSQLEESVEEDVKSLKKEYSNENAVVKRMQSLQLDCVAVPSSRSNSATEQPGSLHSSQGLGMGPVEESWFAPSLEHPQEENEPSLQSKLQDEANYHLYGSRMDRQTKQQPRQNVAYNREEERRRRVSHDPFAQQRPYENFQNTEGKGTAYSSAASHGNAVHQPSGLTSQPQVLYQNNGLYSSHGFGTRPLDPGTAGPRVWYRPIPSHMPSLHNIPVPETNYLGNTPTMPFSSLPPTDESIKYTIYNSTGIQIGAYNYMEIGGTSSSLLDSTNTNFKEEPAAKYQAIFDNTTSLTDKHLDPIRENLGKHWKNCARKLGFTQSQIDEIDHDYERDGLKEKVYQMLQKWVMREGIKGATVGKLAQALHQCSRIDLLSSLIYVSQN

MLKL (full length) = biological target: T2, MLKL (full length) (Homo sapiens, UniProt Q8NB16); assay: KINOMEscan binding assay, MLKL; conditions: equilibrium dissociation constant, class symbols
T2 construct: purchased DiscoverX (KINOMEscan service); host or cells: E. coli BL21-derived (T7 phage) or HEK293
T2 sequence (Q8NB16 1-471): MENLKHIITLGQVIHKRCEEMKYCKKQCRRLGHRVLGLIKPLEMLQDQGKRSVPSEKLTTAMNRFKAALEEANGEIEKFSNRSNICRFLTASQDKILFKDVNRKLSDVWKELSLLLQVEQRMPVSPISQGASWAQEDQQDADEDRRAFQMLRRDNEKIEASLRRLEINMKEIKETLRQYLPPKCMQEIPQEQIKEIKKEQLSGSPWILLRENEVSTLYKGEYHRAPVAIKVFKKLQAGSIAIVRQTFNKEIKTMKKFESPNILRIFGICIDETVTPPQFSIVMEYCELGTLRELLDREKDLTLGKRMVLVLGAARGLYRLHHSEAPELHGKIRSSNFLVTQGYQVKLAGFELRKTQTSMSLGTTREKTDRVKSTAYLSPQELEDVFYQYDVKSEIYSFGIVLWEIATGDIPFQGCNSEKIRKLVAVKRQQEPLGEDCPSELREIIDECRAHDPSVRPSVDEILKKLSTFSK
Source text: The Hill Slope was set to −1.

Compound | Kd (RIP1) [µM] | Kd (MLKL (full length)) [nM]
CC(C)(C)S(=O)(=O)Nc1ccc(-c2n[nH]c(Nc3cnccn3)c2C(N)=O)cc1 [Compound 69, 3-(4-((1,1-dimethylethyl)sulfonamido)phenyl)-5-(pyrazin-2-ylamino)-1H-pyrazole-4-carboxamide] | > 30 | 10 to 1000
NC(=O)c1c(-c2ccc(NS(=O)(=O)c3cccc(C(F)(F)F)c3)cc2)n[nH]c1Nc1cnccn1 [Compound 73, 5-(pyrazin-2-ylamino)-3-(4-((3-(trifluoromethyl)phenyl)sulfonamido)phenyl)-1H-pyrazole-4-carboxamide] | > 30 | 10 to 1000
NC(=O)c1c(-c2ccc(NS(=O)(=O)Cc3ccc(C(F)(F)F)cc3)cc2)n[nH]c1Nc1cnccn1 [Compound 76, 5-[(pyrazin-2-yl)amino]-3-(4-{[4-(trifluoromethyl)phenyl]methanesulfonamido}phenyl)-1H-pyrazole-4-carboxamide] | > 30 | 10 to 1000
NC(=O)c1c(-c2ccc(NS(=O)(=O)CC3CCC3)cc2)n[nH]c1Nc1cnccn1 [Compound 81, 3-(4-((cyclobutylmethyl)sulfonamido)phenyl)-5-(pyrazin-2-ylamino)-1H-pyrazole-4-carboxamide] | > 30 | 10 to 1000
CCS(=O)(=O)Nc1ccc(-c2n[nH]c(Nc3ccc4ccccc4c3)c2C(N)=O)cc1 [Compound 86, 3-(4-(ethylsulfonamido)phenyl)-5-(naphthalen-2-ylamino)-1H-pyrazole-4-carboxamide] | > 30 | < 10
CCS(=O)(=O)Nc1ccc(-c2n[nH]c(Nc3ccn(C)n3)c2C(N)=O)cc1 [Compound 91, 3-(4-(ethylsulfonamido)phenyl)-5-((1-methyl-1H-pyrazol-3-yl)amino)-1H-pyrazole-4-carboxamide] | > 30 | < 10
CCS(=O)(=O)Nc1ccc(-c2n[nH]c(Nc3cncc(OC)n3)c2C(N)=O)cc1 [Compound 99, 3-(4-(ethylsulfonamido)phenyl)-5-((6-methoxypyrazin-2-yl)amino)-1H-pyrazole-4-carboxamide] | > 30 | < 10
CCS(=O)(=O)Nc1ccc(-c2n[nH]c(Nc3ccnc(C(F)(F)F)c3)c2C(N)=O)cc1 [Compound 104, 3-(4-(ethylsulfonamido)phenyl)-5-((2-(trifluoromethyl)pyridin-4-yl)amino)-1H-pyrazole-4-carboxamide] | > 30 | < 10
COCCOc1cc(Nc2[nH]nc(-c3ccc(NS(=O)(=O)C(F)(F)F)cc3)c2C(N)=O)ccn1 [Compound 114, 5-((2-(2-methoxyethoxy)pyridin-4-yl)amino)-3-(4-((trifluoromethyl)sulfonamido)phenyl)-1H-pyrazole-4-carboxamide] | > 30 | < 10
NC(=O)c1c(-c2ccc(NS(=O)(=O)CC(F)(F)F)cc2)n[nH]c1Nc1cnccn1 [Compound 137, 5-(pyrazin-2-ylamino)-3-(4-((2,2,2-trifluoroethyl)sulfonamido)phenyl)-1H-pyrazole-4-carboxamide] | > 30 | < 10
CCS(=O)(=O)Nc1ccc(-c2n[nH]c(Nc3cnccn3)c2C(N)=O)cc1OCc1c(C)cc(F)cc1C [Compound 142, 3-(4-(ethylsulfonamido)-3-((4-fluoro-2,6-dimethylbenzyl)oxy)phenyl)-5-(pyrazin-2-ylamino)-1H-pyrazole-4-carboxamide] | 1 to 30 | 1000 to 30000
CCS(=O)(=O)Nc1ccc(-c2n[nH]c(Nc3cccc(OC(F)(F)F)n3)c2C(N)=O)cc1OCc1ccc(F)cc1 [Compound 172, 3-(4-(ethylsulfonamido)-3-((4-fluorobenzyl)oxy)phenyl)-5-((6-(trifluoromethoxy)pyridine-2-yl)amino)-1H-pyrazole-4-carboxamide] | > 30 | < 10

Continued, values first:

Kd (RIP1) [µM] | Kd (MLKL (full length)) [nM] | Compound
> 30 | 10 to 1000 | NC(=O)c1c(-c2ccc(NS(=O)(=O)Cc3ccc(F)cc3)cc2)n[nH]c1Nc1cccc(C(F)(F)F)n1 [Compound 55, 3-(4-(((4-fluorophenyl)methyl)sulfonamido)phenyl)-5-((6-(trifluoromethyl)pyridin-2-yl)amino)-1H-pyrazole-4-carboxamide]
> 30 | 10 to 1000 | NC(=O)c1c(-c2ccc(NS(=O)(=O)Cc3ccccc3Cl)cc2)n[nH]c1Nc1cccc(C(F)(F)F)n1 [Compound 58, 3-(4-(((2-chlorophenyl)methyl)sulfonamido)phenyl)-5-((6-(trifluoromethyl)pyridin-2-yl)amino)-1H-pyrazole-4-carboxamide]
> 30 | 10 to 1000 | CCS(=O)(=O)Nc1ccc(-c2n[nH]c(Nc3cccnn3)c2C(N)=O)cc1 [Compound 64, 3-(4-ethanesulfonamidophenyl)-5-[(pyridazin-3-yl)amino]-1H-pyrazole-4-carboxamide]
> 30 | < 10 | CCS(=O)(=O)Nc1ccc(-c2n[nH]c(Nc3cccc(OC)n3)c2C(N)=O)cc1 [Compound 107, 3-(4-(ethylsulfonamido)phenyl)-5-((6-methoxypyridin-2-yl)amino)-1H-pyrazole-4-carboxamide]
> 30 | 10 to 1000 | CCS(=O)(=O)Nc1ccc(-c2n[nH]c(Nc3cc(C)ncc3F)c2C(N)=O)cc1 [Compound 111, 3-(4-(ethylsulfonamido)phenyl)-5-((5-fluoro-2-methylpyridin-4-yl)amino)-1H-pyrazole-4-carboxamide]
1 to 30 | 10 to 1000 | CCS(=O)(=O)Nc1ccc(-c2n[nH]c(NC)c2C(N)=O)cc1 [Compound 119, 3-(4-(ethylsulfonamido)phenyl)-5-(methylamino)-1H-pyrazole-4-carboxamide]
> 30 | < 10 | COCCOc1cc(Nc2[nH]nc(-c3ccc(NS(C)(=O)=O)cc3)c2C(N)=O)ccn1 [Compound 122, 5-((2-(2-methoxyethoxy)pyridin-4-yl)amino)-3-(4-(methylsulfonamido)phenyl)-1H-pyrazole-4-carboxamide]
> 30 | 1000 to 30000 | NC(=O)c1c(-c2ccc(NS(=O)(=O)Cc3cccc(Cl)c3)cc2)n[nH]c1Nc1ccccn1 [Compound 129, 3-(4-(((3-chlorophenyl)methyl)sulfonamido)phenyl)-5-(pyridin-2-ylamino)-1H-pyrazole-4-carboxamide]
> 30 | 10 to 1000 | Cc1ccc(CS(=O)(=O)Nc2ccc(-c3n[nH]c(Nc4ccccn4)c3C(N)=O)cc2)cc1 [Compound 132, 5-(pyridin-2-ylamino)-3-(4-((p-tolylmethyl)sulfonamido)phenyl)-1H-pyrazole-4-carboxamide]
> 30 | < 10 | NC(=O)c1c(-c2ccc(NS(=O)(=O)CC(F)(F)F)c(Oc3ccc(F)cc3)c2)n[nH]c1Nc1cccc(C(F)(F)F)n1 [Compound 148, 3-(3-(4-fluorophenoxy)-4-((2,2,2-trifluoroethyl)sulfonamido)phenyl)-5-((6-(trifluoromethyl)pyridine-2-yl)amino)-1H-pyrazole-4-carboxamide]
> 30 | < 10 | NC(=O)c1c(-c2ccc(NS(=O)(=O)CC(F)(F)F)c(Oc3cccc(F)c3)c2)n[nH]c1Nc1cnccn1 [Compound 167, 3-(3-(3-fluorophenoxy)-4-((2,2,2-trifluoroethyl)sulfonamido)phenyl)-5-(pyrazin-2-ylamino)-1H-pyrazole-4-carboxamide]
